# Results are given in words; binding and its absence hold for the method and conditions named. Binding seen in cells or lysates may run through a third protein. Where a sequence is shown, tags or fusion partners need not be part of it.
# T1: Pbp1Δ491-570 (Flag-tagged) (S. cerevisiae) (UniProt P53297)
# T1 sequence: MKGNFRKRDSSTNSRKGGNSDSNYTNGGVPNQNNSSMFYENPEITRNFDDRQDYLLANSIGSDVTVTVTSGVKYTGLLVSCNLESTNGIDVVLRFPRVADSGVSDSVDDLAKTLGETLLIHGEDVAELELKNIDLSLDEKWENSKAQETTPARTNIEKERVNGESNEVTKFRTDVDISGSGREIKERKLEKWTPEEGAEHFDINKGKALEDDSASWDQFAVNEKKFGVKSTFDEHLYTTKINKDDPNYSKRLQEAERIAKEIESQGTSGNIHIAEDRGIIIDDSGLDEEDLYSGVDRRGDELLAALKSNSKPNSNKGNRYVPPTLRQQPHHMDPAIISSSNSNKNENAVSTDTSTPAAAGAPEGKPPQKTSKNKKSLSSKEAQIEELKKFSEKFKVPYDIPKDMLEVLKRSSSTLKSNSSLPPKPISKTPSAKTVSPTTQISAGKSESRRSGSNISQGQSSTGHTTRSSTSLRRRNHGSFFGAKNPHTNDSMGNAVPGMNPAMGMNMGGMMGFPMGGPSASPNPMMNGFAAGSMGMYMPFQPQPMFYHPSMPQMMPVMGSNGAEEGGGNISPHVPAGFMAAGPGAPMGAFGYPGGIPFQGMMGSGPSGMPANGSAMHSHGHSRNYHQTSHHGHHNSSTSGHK
# B1: Mkt1-HA (protein, UniProt P40850 1-830)
# chain: MAIKSLESFLFERGLVGSYAIEALNNCTLGIDVNHYVSRLLTNKREQYLDAIGGFPTSLKMYLESDLKIFKDFNITPIFVFNGGLTYNQLEASGHFTAASASASISSTTTSSSGTNATTRSNTESVLLQRSRGWTQWNNLISSNQNSYIDQPIQPQEPFRHNTTIDSKAYQNDLIAYFIEHGYMYQVAPYSSWFQLAYLLNSAYIDAIYGPTDCLMLDCVDRFILGMEFPNKEFRFIDRSRVMKDLGCTHEEFIDIAMAVGNDLQPTTLPPLQIYPVPQLFDIALEMVLNTGTNFYAYQLSTTLQNDSKENIQNYQRGISALRYMPVLKDTGKVELFVQEIVVSEEDSEKNNKDGKKSNLSSPSSASSSASPATTVTKNASEKLTYEKSSTKEVRKPRDIPNDVHDFIGQMLPHEYYFYRSIGLVTGKLFDAIVTGVYPEEPPLGGGSSTSYRKLVSKSVEIFKNKEINLLTQPINRYYQIKQIKQVKWYAANEPTTLTNRMSPSMFETINHLIVKTETSDEKEFSISEFITTINGSSNMAKDFISEKVIFPNSVPIESKLNSPFNLLSTNFLRLLVLLEFFTFDFKEKLLEPTRWGEVFLKLNELNIDSKYHESVIIFLVFLKCDVLKLDEEVQPPAPSALSQATLRSYPEESLYVLLITRVLTLFQVDQKPSNYHGPIDKKTLIFRDHLSFIKENLNELFEAVLISSLTSGEFNRLSLDNFGWARKIVRYLPFKLDSPNTIMAMMWEFFLQKYLHNGNAKNDALSLVATEFNTYKSTPNLDEQFVESHRFLLEISKVMQELNAAKLIDENVFKLFTKAVEFTTTALSS
# Biological target: T1, Pbp1Δ491-570 (Flag-tagged) (S. cerevisiae)
# Assay: co-IP; anti-Flag (M2) on Dynabeads Protein G, 1–2 h at 4°C; lysis in 50 mM HEPES pH 7.5, 150 mM NaCl, 1 mM EDTA, NP-40; washes with 0.2% NP-40; blot for HA; cells in YPD, YPL, SD or SL medium; wild-type or mkt1∆ background; CEN.PK and S288C
binder,measurement,value
B1,binding,no binding

# From paper PMC12345631
